# From the supplement of paper PMC12217912
# This is one part of the list. Sequences were assembled here from the parent chain. Values near 0.05 are background.
# B1: TEV protease; numbered along this chain (parent)
# chain: MGESLFKGPRDYNPISSSICHLTNESDGHTTSLYGIGFGPFIITNKHLFRRNNGTLVVQSLHGVFKVKDTTTLQQHLVDGRDMIIIRMPKDFPPFPQKLKFREPQREERICLVTTNFQTKSMSSMVSDTSCTFPSGDGIFWKHWIQTKDGQCGSPLVSTRDGFIVGIHSASNFTNTNNYFTSVPKNFMELLTNQEAQQWVSGWRLNADSVLWGGHKVFMVKPEEPFQPVKEATQL
# Variants of: B1
# Test: raw area under fraction-flipped curve 0-4 h after induction (AUC4h, not background-subtracted), DNA-recorder readout of cleavage of the substrate (dimensionless); higher = more cleavage of the substrate by the protease variant
# Conditions: temperature: 34 °C; time window: 0-4 h after rhamnose induction
# 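Also: Bxb1 expression induced with 0.2% (w/v) L-rhamnose at OD600 near 0.5, cultures sampled hourly, flipped fraction per protease–substrate barcode pair counted by paired-end Illumina sequencing.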
Variant,area with substrate ENCYFQS,area with substrate ENDYFQS,area with substrate ENEYFQS,area with substrate ENNYFQS,area with substrate ENQYFQS,area with substrate ENFYFQS,area with substrate ENRYFQS,area with substrate ENSYFQS,area with substrate ENYYFQS,area with substrate ENTYFQS
MGESLFKGPRDYNPISSSICHLTNESDGHTTSLYGIGFGPFIITNKHLFRRNNGTLVVQSLHGVFKVKDTTTLQQHLVDGRDMIIIRMPKDFPPFPQKLKFREPQREERICLVTTNFQTKSMSSMVSDTSCTFPSGDGIFWKHWIQTKDGQCGSPLVSTRDGFIVGIHSASNFTNTNNYFTSVPKNFMELLTYQEAQQWVSGWRLNADSVLWGGHKVFMVKPEEPFQPVKEATQL [N193Y],0.0593,0.0567,0.0684,0.0724,0.0635,–,–,–,–,–
MGESLFKGPRDYNPISSSICHLTNESDGHTTSLYGIGFGPFIITNKHLFRRNNGTLVVQSLHGVFKVKDTTTLQQHLVDGRDMIIIRMPKDFPPFPQKLKFREPQREERICLVTTNFQTKSMSSMVSDTSCTFPSGDGIFWKHWIQTKDGQCGSPLVSTRDGFIVGIHSASNFTNTNNYFTSVPKNFMELLTNQEAIQWVSGWRLNADSVLWGGHKVFMVKPEEPFQPVKEATQL [Q197I],0.0554,0.0435,0.0645,0.0563,0.0592,0.0629,0.0576,0.0554,0.0695,–
MGESLFKGPRDYNPISSSICHLTNESDGHTTSLYGIGFGPFIITNKHLFRRNNGTLVVQSLHGVFKVKDTTTLQQHLVDGRDMIIIRMPKDFPPFPQKLKFREPQREERICLVTTNFQTKSMSSMVSDTSCTFPSGDGIFWKHWIQTKDGQCGSPLVSTRDGFIVGIHSASNFTNTNNYFTSVPKNFMELLTNQEAQQQVSGWRLNADSVLWGGHKVFMVKPEEPFQPVKEATQL [W199Q],0.0843,–,–,0.063,0.0614,–,0.0551,–,–,0.0629
MGESLFKGPRDYNPISSSICHLTNESDGHTTSLYGIGFGPFIITNKHLFRRNNGTLVVQSLHGVFKVKDTTTLQQHLVDGRDMIIIRMPKDFPPFPQKLKFREPQREERICLVTTNFQTKSMSSMVSDTSCTFPSGDGIFWKHWIQTKDGQCGSPLVSTRDGFIVGIHSASNFTNTNNYFTSVPKNFMELLTNQEAQQWVNGWRLNADSVLWGGHKVFMVKPEEPFQPVKEATQL [S201N],0.0592,0.0589,0.0596,0.0419,0.0558,0.0654,0.0575,0.0722,–,0.057
MGESLFKGPRDYNPISSSICHLTNESDGHTTSLYGIGFGPFIITNKHLFRRNNGTLVVQSLHGVFKVKDTTTLQQHLVDGRDMIIIRMPKDFPPFPQKLKFREPQREERICLVTTNFQTKSMSSMVSDTSCTFPSGDGIFWKHWIQTKDGQCGSPLVSTRDGFIVGIHSASNFTNTNNYFTSVPKNFMELLTNQEAQQWVSWWRLNADSVLWGGHKVFMVKPEEPFQPVKEATQL [G202W],0.0585,0.0531,0.0446,0.039,0.0572,0.0589,–,0.0505,–,0.0693
MGESLFKGPRDYNPISSSICHLTNESDGHTTSLYGIGFGPFIITNKHLFRRNNGTLVVQSLHGVFKVKDTTTLQQHLVDGRDMIIIRMPKDFPPFPQKLKFREPQREERICLVTTNFQTKSMSSMVSDTSCTFPSGDGIFWKHWIQTKDGQCGSPLVSTRDGFIVGIHSASNFTNTNNYFTSVPKNFMELLTNQEAQQWVSGDRLNADSVLWGGHKVFMVKPEEPFQPVKEATQL [W203D],0.078,0.0588,–,0.0447,0.0518,–,–,–,–,–
MGESLFKGPRDYNPISSSICHLTNESDGHTTSLYGIGFGPFIITNKHLFRRNNGTLVVQSLHGVFKVKDTTTLQQHLVDGRDMIIIRMPKDFPPFPQKLKFREPQREERICLVTTNFQTKSMSSMVSDTSCTFPSGDGIFWKHWIQTKDGQCGSPLVSTRDGFIVGIHSASNFTNTNNYFTSVPKNFMELLTNQEAQQWVSGWRLNRDSVLWGGHKVFMVKPEEPFQPVKEATQL [A207R],0.067,–,0.0647,0.0577,0.0509,–,–,0.0693,0.0733,–
MGESLFKGPRDYNPISSSICHLTNESDGHTTSLYGIGFGPFIITNKHLFRRNNGTLVVQSLHGVFKVKDTTTLQQHLVDGRDMIIIRMPKDFPPFPQKLKFREPQREERICLVTTNFQTKSMSSMVSDTSCTFPSGDGIFWKHWIQTKDGQCGSPLVSTRDGFIVGIHSASNFTNTNNYFTSVPKNFMELLTNQEAQQWVSGWRLNADAVLWGGHKVFMVKPEEPFQPVKEATQL [S209A],0.0625,–,–,–,–,–,–,–,0.0532,0.0604
MGESLFKGPRDYNPISSSICHLTNESDGHTTSLYGIGFGPFIITNKHLFRRNNGTLVVQSLHGVFKVKDTTTLQQHLVDGRDMIIIRMPKDFPPFPQKLKFREPQREERICLVTTNFQTKSMSSMVSDTSCTFPSGDGIFWKHWIQTKDGQCGSPLVSTRDGFIVGIHSASNFTNTNNYFTSVPKNFMELLTNQEAQQWVSGWRLNADEVLWGGHKVFMVKPEEPFQPVKEATQL [S209E],0.0702,0.066,0.0581,–,0.0696,0.0614,0.122,0.0628,–,0.0584
MGESLFKGPRDYNPISSSICHLTNESDGHTTSLYGIGFGPFIITNKHLFRRNNGTLVVQSLHGVFKVKDTTTLQQHLVDGRDMIIIRMPKDFPPFPQKLKFREPQREERICLVTTNFQTKSMSSMVSDTSCTFPSGDGIFWKHWIQTKDGQCGSPLVSTRDGFIVGIHSASNFTNTNNYFTSVPKNFMELLTNQEAQQWVSGWRLNADHVLWGGHKVFMVKPEEPFQPVKEATQL [S209H],0.0675,0.103,–,–,0.0835,–,0.0624,0.0713,–,0.0733

# Same assay, conditions: temperature: 34 °C; time window: 0-4 h after rhamnose induction
Variant,area with substrate ENVYFQS,area with substrate ENWYFQS,area with substrate ENGYFQS,area with substrate ENKYFQS,area with substrate ENMYFQS,area with substrate ENPYFQS,area with substrate ENHYFQS,area with substrate ENIYFQS
MGESLFKGPRDYNPISSSICHLTNESDGHTTSLYGIGFGPFIITNKHLFRRNNGTLVVQSLHGVFKVKDTTTLQQHLVDGRDMIIIRMPKDFPPFPQKLKFREPQREERICLVTTNFQTKSMSSMVSDTSCTFPSGDGIFWKHWIQTKDGQCGSPLVSTRDGFIVGIHSASNFTNTNNYFTSVPKNFMELLTNQEAQQQVSGWRLNADSVLWGGHKVFMVKPEEPFQPVKEATQL [W199Q],0.0616,0.0611,–,–,–,–,–,–
MGESLFKGPRDYNPISSSICHLTNESDGHTTSLYGIGFGPFIITNKHLFRRNNGTLVVQSLHGVFKVKDTTTLQQHLVDGRDMIIIRMPKDFPPFPQKLKFREPQREERICLVTTNFQTKSMSSMVSDTSCTFPSGDGIFWKHWIQTKDGQCGSPLVSTRDGFIVGIHSASNFTNTNNYFTSVPKNFMELLTNQEAQQWVNGWRLNADSVLWGGHKVFMVKPEEPFQPVKEATQL [S201N],0.0459,–,0.0513,0.0634,0.0686,0.0567,–,–
MGESLFKGPRDYNPISSSICHLTNESDGHTTSLYGIGFGPFIITNKHLFRRNNGTLVVQSLHGVFKVKDTTTLQQHLVDGRDMIIIRMPKDFPPFPQKLKFREPQREERICLVTTNFQTKSMSSMVSDTSCTFPSGDGIFWKHWIQTKDGQCGSPLVSTRDGFIVGIHSASNFTNTNNYFTSVPKNFMELLTNQEAQQWVSWWRLNADSVLWGGHKVFMVKPEEPFQPVKEATQL [G202W],–,–,0.064,0.0452,–,0.0674,0.052,0.0685
MGESLFKGPRDYNPISSSICHLTNESDGHTTSLYGIGFGPFIITNKHLFRRNNGTLVVQSLHGVFKVKDTTTLQQHLVDGRDMIIIRMPKDFPPFPQKLKFREPQREERICLVTTNFQTKSMSSMVSDTSCTFPSGDGIFWKHWIQTKDGQCGSPLVSTRDGFIVGIHSASNFTNTNNYFTSVPKNFMELLTNQEAQQWVSGDRLNADSVLWGGHKVFMVKPEEPFQPVKEATQL [W203D],0.0289,0.0028,–,0.0631,–,–,–,–
MGESLFKGPRDYNPISSSICHLTNESDGHTTSLYGIGFGPFIITNKHLFRRNNGTLVVQSLHGVFKVKDTTTLQQHLVDGRDMIIIRMPKDFPPFPQKLKFREPQREERICLVTTNFQTKSMSSMVSDTSCTFPSGDGIFWKHWIQTKDGQCGSPLVSTRDGFIVGIHSASNFTNTNNYFTSVPKNFMELLTNQEAQQWVSGWRLNRDSVLWGGHKVFMVKPEEPFQPVKEATQL [A207R],0.0587,–,0.0613,–,–,–,–,–
MGESLFKGPRDYNPISSSICHLTNESDGHTTSLYGIGFGPFIITNKHLFRRNNGTLVVQSLHGVFKVKDTTTLQQHLVDGRDMIIIRMPKDFPPFPQKLKFREPQREERICLVTTNFQTKSMSSMVSDTSCTFPSGDGIFWKHWIQTKDGQCGSPLVSTRDGFIVGIHSASNFTNTNNYFTSVPKNFMELLTNQEAQQWVSGWRLNADEVLWGGHKVFMVKPEEPFQPVKEATQL [S209E],–,0.0592,0.056,–,–,0.0586,–,–
MGESLFKGPRDYNPISSSICHLTNESDGHTTSLYGIGFGPFIITNKHLFRRNNGTLVVQSLHGVFKVKDTTTLQQHLVDGRDMIIIRMPKDFPPFPQKLKFREPQREERICLVTTNFQTKSMSSMVSDTSCTFPSGDGIFWKHWIQTKDGQCGSPLVSTRDGFIVGIHSASNFTNTNNYFTSVPKNFMELLTNQEAQQWVSGWRLNADHVLWGGHKVFMVKPEEPFQPVKEATQL [S209H],0.0921,–,–,–,0.0702,–,–,–
